Measurements published in ChEMBL document CHEMBL4888484, “Replenishing the malaria drug discovery pipeline: Screening and hit evaluation of the MMV Hit Generation Library 1 (HGL1) against asexual blood stage Plasmodium falciparum ,using a nano luciferase reporter read-out” (2022).
Screen size: about 150,000 compounds; about 540 (0.36%) showed an effect of 50% or more. The list shows a part of the results.

What follows are compounds tested on Plasmodium falciparum (assay: Primary screen in NF54 nanoGlo assay, in single point, at 2uM, 72h; a lower Z score goes with more inhibition). Details: timepoint 72 hour.
Format: functional, Erythrocyte

SMILES	% Inhibition [%]	Z score
O=C(O)c1nnn(-c2cccc(OC(F)(F)F)c2)c1-c1cccnc1	-20	2.18
O=C(N[C@H]1CC(=O)N(C2CC2)C1)C1CCC1	-9	1.69
CCOC(=O)c1nc2cc(Cl)c(Cl)cc2nc1N1CCCN(S(=O)(=O)c2ccc(NC(C)=O)cc2)CC1	-9	1.31
COc1ccc(CCN(C(=O)c2cnc(C)nc2)C2CCCCCC2)cc1OC	-2	0.42
CC1C(c2ccccc2)CCN1c1cncc(C(N)=O)n1 (stereo unspecified)	4	-0.6
C[C@H](NCC(=O)NCC1CC1)c1ccc(Br)cc1F	-4	0.57
CCC(=O)NCc1csc(C2CCN(C(=O)c3ccc(C)cc3)CC2)n1	-14	1.79
CCc1nc(C2(NCC(=O)N3c4ccccc4C[C@@H]3C)CCCC2)no1	3	-0.51
COC[C@@H]1CN(C(=O)c2cccc(C#N)c2)C[C@H]1c1nc(C2CC2)no1	-15	2.64
CCO[C@@H](C)c1noc(-c2cc(NC(C)=O)cc(C(F)(F)F)c2)n1	-4	0.4
CC(=O)OCC(=O)Nc1ccccc1C	-6	0.59
Cn1ncc(C(=O)N2CCN(Cc3ccc(-c4cccc(F)c4)s3)CC2)c1N	-19	1.96
Cc1c(C)c(C(=O)NCc2cccc(C(F)(F)F)c2)n(Cc2ccc(F)c(F)c2)c1C	-5	0.56
C[C@@H]1Oc2cc(S(=O)(=O)N3CCN(C(=O)Cc4cccc(F)c4)CC3)c(Cl)cc2NC1=O	-13	1.34
Cc1nsc(N2CCC3CCC(C2)N3C(=O)OC(C)(C)C)n1 (stereo unspecified)	-8	0.81
COc1ccc(OCc2nc(C(=O)N3CCN(c4ccc(C)cc4)CC3)co2)cc1	-10	1.54
Cn1c(COc2ccc(C3CCCC3)cc2)nnc1[C@H]1C[C@@H](N)C1	0	-0.05
CCn1ccc2ccc(CN3CC[C@@H](O)C[C@H]3C(=O)OC)cc21	-13	1.83
Cc1cc(C)c2nc(N3CCC(C(=O)NC4CCCCCC4)CC3)sc2c1	-8	1.22
CC(=O)N(CCN1CCOCC1)[C@H]1CCN(C(=O)CC(C)C)C1	-9	1.14
Cc1cc(C)nc(NCc2cccnc2N2CCOCC2)n1	6	-0.9

SMILES	% Inhibition [%]	Z score
CCn1ncc(-c2ccc3c(c2)OCCO3)c1C(=O)OC	-14	1.93
CCC(=O)N(Cc1c(-c2ccccc2)nn(C)c1Oc1ccc(OC)cc1)CC1CC1	3	-0.28
CCCn1nccc1NS(=O)(=O)c1cccc2nsnc12	6	-0.66
Cc1ccc(NCCCNC(=O)[C@@H]2CCCCCN2C)nc1	-4	0.68
Cc1cnc(C(C)N2CCCC(c3ccn[nH]3)C2)o1 (stereo unspecified)	-4	0.36
Cc1ccc(C)c(NC(N)=NCCCn2cc(C)cn2)c1	3	-0.41
Cc1noc([C@H](C)NC(=O)N2CCC(C#N)CC2)n1	-7	0.65
COc1cccc(-c2nc(Cn3ccn4nc(-c5cc(C)ccc5C)cc4c3=O)no2)c1	-7	0.94
CCC(CC)CN(CC)C(=O)c1cc(CO)on1	-8	1.06
CCc1ccc(CNC(C)(C)CO)cc1	29	-3.94
O=C(NCCc1nc2ccccc2[nH]1)C(=O)Nc1cc(-c2ccccc2)ns1	-23	2.45
O=C(c1cnc(C2CC2)nc1)N(CCO)CC1CCCCC1	-1	0.2
CC(C(=O)N1CCc2ccccc2C1)N(C)CC1CCOC1 (stereo unspecified)	5	-0.64
CCOc1ccc(N2C3=[N+](CCCCC3)C[C@]2(O)c2ccc(OC(F)F)cc2)cc1	1	-0.06
COc1cc(Cl)ccc1C(=O)N1CCCN(c2nnc3ccccn23)CC1	-2	0.24
CN(CCN(C(=O)[C@H]1CCc2[nH]nnc2C1)C1CC1)C1CC1	11	-1.39
C[C@@H](CNc1nc(-c2ccccc2)nc2ccccc12)N1CCOCC1	-9	1.51
C[C@@H](Cc1ccsc1)N(C)C(=O)c1cccc(C(=O)O)n1	5	-0.53
CC(C)c1noc(C2CCN(C(=O)c3cc(C#N)c[nH]3)CC2)n1	11	-2.14
CCO[C@H]1COC[C@@H]1NC(=O)c1ccc(Cl)s1	-2	0.29
COc1ccccc1CC(=O)NC[C@H](C)O	40	-1.39

SMILES	% Inhibition [%]	Z score
Cc1nc(-c2csc(S(=O)(=O)N3CCC[C@H](C(=O)Nc4ccccc4C)C3)c2)no1	-17	1.96
COc1cc(N2CCC(N3CCC[C@H](C(=O)NCc4ccccn4)C3)CC2)ncn1	-22	2.02
Cc1ccccc1N1CCN(C(=O)C[C@]2(c3ccccc3F)CC(=O)N(CCN(C)C)C2=O)CC1	8	-1.08
COc1ccc(OC)c(CN(c2cnn(C)c2)S(=O)(=O)N2CCC[C@H](C)C2)c1	18	-2.06
COc1cccc(C(=O)NCC(=O)Nc2cccc(C(=O)NC3CC3)c2)c1	-9	1.32
O=C(NC1CCCC(O)C1)c1cccnc1OCc1ccccc1F (stereo unspecified)	-5	0.58
COCCN(CC(=O)N(Cc1ccccc1)Cc1cccs1)C(=O)CC(C)C	-7	0.85
CC[C@@H](C(=O)Nc1c(C)cnn1CC)N1CCOCC1	-15	1.81
C[C@]1(C#N)CCCN(C2CCN(Cc3ccco3)CC2)C1	-11	2.05
Cc1ccc(NC(=O)Cn2c(Nc3cccc(C)c3)nc(C)cc2=O)cc1	-12	1.26
Cc1sc([C@H](C)NC(=O)OC(C)(C)C)nc1C(=O)O	-13	1.99
COc1ccccc1CN1C(=O)O[C@H]2CN(S(=O)(=O)N3CCCC3)C[C@H]21	-2	0.29
Cc1noc(C)c1NC(=O)N1CCN(Cc2ccncc2)CC1	-30	2.74
O=C1[C@@H]2C(c3ccc(Cl)cc3Cl)=NO[C@@H]2C(=O)N1c1ccc2c(c1)OCO2	14	-1.78
CC(CC(O)c1ccco1)NCc1ccncc1 (stereo unspecified)	-4	0.59
Cc1ccc(S(=O)(=O)Nc2ccc(Oc3cc(C)nc(C)n3)cc2)cc1	-11	1.44
CCNc1nc(C)c(C(=O)N[C@H]2CC[C@H]2NC2Cc3ccccc3C2)s1	1	-0.07
CCCc1nc(N2CCC(CNC(=O)c3conc3-c3ccccc3)CC2)no1	-5	0.68
C[C@@H](CCc1ccco1)Nc1ccc2cc[nH]c2n1	-2	0.34
Cc1cccc(-c2c3c(=O)n(C)c(=O)n(C)c3c3c(C)cc(C)nn23)c1	-14	1.87
CCC(NC(=O)c1c(O)cccc1F)[C@H]1C[C@H](O)C1 (stereo partly specified)	-2	0.3

SMILES	% Inhibition [%]	Z score
CC(=O)N[C@H](C(=O)Nc1ccc(C)c(F)c1)C(C)C	30	-3.45
Cc1cc(C)cc(OCc2nc(CCN(C)C(=O)Nc3cccc(C(F)(F)F)c3)no2)c1	-10	0.98
COC[C@H](C)N(Cc1cccc(F)c1)C(=O)c1cnc(C)[nH]c1=O	-10	1.46
CC(=O)Nc1ccc(C)cc1S(=O)(=O)n1cc2c(=O)n(C(C)C)c(=O)n(C(C)C)c2n1	-3	0.36
CCOCc1nc(C)cc(N2CC(O)(c3cccc4ccccc34)C2)n1	-1	0.2
Cc1ccccc1NC(=O)c1ccccc1OCc1ccc(S(=O)(=O)N2CCCC2)o1	0	0
CCOc1ccnc(N2CCCN(c3ccncc3Cl)CC2)n1	-14	2.25
CCN(CC)c1ccc(C(=O)Nn2cc(C(=O)NCc3ccc(F)cc3)c3ccccc3c2=O)cc1	6	-0.91
CC1NC(=O)CCC1NC(=O)N1CC2CCC1C2 (stereo unspecified)	-8	0.98
CNC(=O)[C@@H]1CN(Cc2ccc(C)o2)CCO1	2	-0.4
CCc1noc(-c2c(C)[nH]c(C)c2S(=O)(=O)NCc2cccc(C)c2)n1	-3	0.66
O=C(O)c1ccc2c(c1)CN(C(=O)CCC1CCC1)C2	8	-1.02
CCCC1(Cn2ccnc2-c2nccn2C)CCC1	-8	1.36
CN(Cc1cnc(C(C)(C)C)s1)Cc1nnc2n1CCOCC2	4	-0.88
COc1cccc([C@@H]2CC(=O)Nc3ccc4nn(-c5ccccc5)nc4c32)c1	-6	0.77
CCN(C)C1(CNC(=O)c2ccc(-c3cnccn3)cc2)CCCC1	-14	2.04
O=C(O)c1cccc(C(=O)N(CC2CCC2)CC(F)(F)F)c1	12	-1.7
COc1ccc(Cl)cc1N1C(=O)[C@@H]2COCCN2C1=O	-10	0.92
Cc1ccc(C)c(N2CCN(S(=O)(=O)c3c(C(=O)N4CCC(C)CC4)c(C)n(C)c3C)CC2)c1	-10	1.85
Cc1ccc(C)c(Cn2c(=O)n(Cc3ccco3)c(=O)c3ccccc32)c1	-10	1.79
